Test results reported in the supplement of paper PMC9446081.
In all, about 39,000 compounds went through this assay and about 220 (0.56%) showed activity. Some of the results follow.

test system: Escherichia coli K-12 BW25113; assay: relative growth (OD600 normalised to plate interquartile mean) (fraction); higher = less growth inhibition, active = 0.2 or less; conditions: 50 µM; LB; incubation time: overnight (16-24 h)
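Further: static incubation at 37 °C against the wild-type strain, values averaged over two biological replicates.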

SMILES	relative growth
C[C@H](O)C#Cc1cnc2c(c1)C(=O)N([C@@H](C)CO)C[C@H](C)[C@H](CN(C)C(=O)Nc1ccc(C(F)(F)F)cc1)O2	inactive: 0.996
C[C@@H]1CN([C@H](C)CO)C(=O)CCCn2cc(nn2)CO[C@H]1CN(C)C(=O)Nc1ccnc(N2CCOCC2)c1	inactive: 0.987
Cn1cnc([N+](=O)[O-])c1Cl	inactive: 1
O=C(C[C@H]1C[C@H]2c3cc(NC(=O)Cc4ccncc4)ccc3O[C@H]2[C@H](CO)O1)NCCc1ccccc1	inactive: 0.968
COc1cccc(C#Cc2ccc3c(c2)O[C@H](CN(C)S(=O)(=O)c2ccccc2F)[C@@H](C)CN([C@H](C)CO)S3(=O)=O)c1	inactive: 1.04
C[C@@H]1CN([C@H](C)CO)C(=O)c2cc(NC(=O)CCCN(C)C)ccc2O[C@@H]1CN(C)S(=O)(=O)c1ccccc1	inactive: 1.01
CCCN(C)C[C@H]1OCCCC[C@@H](C)Oc2ccc(NC(=O)Nc3ccc(C(F)(F)F)cc3)cc2C(=O)N([C@H](C)CO)C[C@H]1C	inactive: 0.957
COC(=O)c1cn(-c2cccc(N)c2)nn1	inactive: 1.03
CC[C@@]12O[C@H]3[C@@H](O)[C@H]4C[C@@H]3[C@@H]1[C@@H]4C(=O)N2C	inactive: 0.996
O=C(C[C@H]1CC[C@@H](NC(=O)C2CC2)[C@@H](CO)O1)NCCCN1CCOCC1	inactive: 1.02
C[C@H](CO)N1C[C@H](C)[C@@H](CN(C)C(=O)NC2CCCCC2)Oc2ccc(NC(=O)Nc3ccc(C(F)(F)F)cc3)cc2CC1=O	inactive: 1.01
CCCNC(=O)N1C[C@H](O)COC[C@H]2O[C@@H](CC(=O)N3CCOCC3)CC[C@@H]21	inactive: 0.986
COc1ccc(NC(=O)Nc2ccc3c(c2)CC(=O)N([C@@H](C)CO)C[C@@H](C)[C@@H](CN(C)Cc2ccc(C(F)(F)F)cc2)O3)cc1	inactive: 1
C[C@H](CO)N1C[C@H](C)[C@H](CN(C)C(=O)Nc2ccc(C(F)(F)F)cc2)Oc2ccc(NC(=O)Nc3ccc(C(F)(F)F)cc3)cc2C1=O	inactive: 0.993
CC[C@H](C)[C@H](N)C1=N[C@H](C(=O)N[C@@H](CC(C)C)C(=O)N[C@@H]2CCC(=O)[O][Zn][O]C(=O)C[C@H]3NC(=O)[C@H](Cc4c[nH]cn4)NC(=O)[C@@H](Cc4ccccc4)NC(=O)[C@H]([C@@H](C)CC)NC(=O)[C@@H](CCCN)NC(=O)[C@H](CCCCNC(=O)[C@H](CC(N)=O)NC3=O)NC(=O)[C@H]([C@@H](C)CC)NC2=O)CS1	inactive: 0.696
COc1ccccc1S(=O)(=O)N[C@@H]1CC[C@H](CCNC(=O)C2CC2)O[C@@H]1CO	inactive: 1
O=C(N[C@H]1C=C[C@@H](CC(=O)N2CCOCC2)O[C@H]1CO)c1ccccn1	inactive: 0.978
C[C@H](CO)N1C[C@H](C)[C@H](CN(C)S(C)(=O)=O)Oc2ncc(C#Cc3cccnc3)cc2C1=O	inactive: 0.988
OCCN1C[C@H](O)[C@@H](O)[C@H](O)[C@H]1CO	inactive: 0.993

SMILES	relative growth
C[C@H](CO)N1C[C@H](C)[C@H](CN(C)Cc2ccc(C(F)(F)F)cc2)OCCCC[C@H](C)Oc2ccc(NC(=O)Cc3ccccc3)cc2C1=O	inactive: 1.02
Cc1ccc(S(=O)(=O)Nc2ccc3c(c2)CC(=O)N([C@@H](C)CO)C[C@@H](C)[C@H](CN(C)C(=O)NC(C)C)O3)cc1	inactive: 1.01
Cc1ccc(S(=O)(=O)N(C)C[C@@H]2OCCCC[C@H](C)Oc3ccc(NS(=O)(=O)c4ccc(Cl)cc4)cc3C(=O)N([C@@H](C)CO)C[C@@H]2C)cc1	inactive: 1.03
CNC[C@H]1Oc2ccc(NC(=O)Cn3cnnn3)cc2C(=O)N([C@H](C)CO)C[C@H]1C	inactive: 1.01
CC(C)(O)C1CCC(C)(C2C(O)CC3(C)C4CC(OC5OC(CO)C(O)C(O)C5O)C5C(C)(C)C(OC6OCC(O)C(O)C6O)CCC56CC46CCC23C)O1 (configuration not stated)	inactive: 0.914
C[C@H]1CN([C@@H](C)CO)C(=O)c2cccc(NC(=O)C3CC3)c2O[C@@H]1CN(C)S(=O)(=O)c1cn(C)cn1	inactive: 1
O=C(N[C@H]1C=C[C@@H](CC(=O)N2CCOCC2)O[C@@H]1CO)c1ccc2c(c1)OCO2	inactive: 0.961
C[C@@H]1CCCCO[C@H](CN(C)Cc2ccccc2)[C@@H](C)CN([C@@H](C)CO)C(=O)c2cc(NC(=O)Cc3ccccc3)ccc2O1	inactive: 0.99
C[C@@H]1CN([C@H](C)CO)C(=O)Cc2cc(NC(=O)c3ccncc3)ccc2O[C@H]1CN(C)S(=O)(=O)c1ccc(F)cc1	inactive: 0.998
COc1ccc(CN(C)C[C@H]2Oc3c(NS(=O)(=O)c4cn(C)cn4)cccc3C(=O)N([C@@H](C)CO)C[C@@H]2C)cc1	inactive: 1
Cc1noc(C)c1NC(=O)N(C)C[C@H]1Oc2ncc(C#CCC(C)C)cc2C(=O)N([C@@H](C)CO)C[C@H]1C	inactive: 1.01
C[C@H]1CN([C@@H](C)CO)S(=O)(=O)c2ccc(C#CCN(C)C)cc2O[C@H]1CN(C)Cc1ccccn1	inactive: 0.993
C[C@@H]1CN([C@@H](C)CO)C(=O)c2cc(NC(=O)c3ccncc3)ccc2O[C@@H](C)CCCCO[C@H]1CN(C)C(=O)C1CCCCC1	inactive: 1.03
COc1ccc(NC(=O)N(C)C[C@H]2OCCCC[C@H](C)Oc3ccc(NS(=O)(=O)c4ccc(OC)cc4)cc3C(=O)N([C@@H](C)CO)C[C@H]2C)cc1	inactive: 1.02
C[C@@H]1CN([C@H](C)CO)C(=O)c2cc(NS(C)(=O)=O)ccc2O[C@H]1CN(C)Cc1ccc2c(c1)OCO2	inactive: 0.985
COc1ccccc1CNC(=O)C[C@@H]1C[C@@H]2c3cc(NC(=O)C4CCOCC4)ccc3O[C@@H]2[C@@H](CO)O1	inactive: 0.971
C[C@H]1CN([C@@H](C)CO)C(=O)c2cccc(NC(=O)c3ccncc3)c2O[C@H]1CN(C)Cc1ccc(C(=O)O)cc1	inactive: 1
COCC(=O)Nc1ccc2c(c1)OC[C@H](C)N(Cc1ccccc1F)C[C@H](C)[C@@H](OC)CN(C)C2=O	inactive: 1.02
C[C@@H]1CN([C@@H](C)CO)C(=O)CCCn2nncc2CO[C@@H]1CN(C)C(=O)Nc1ccc(C(C)(C)C)cc1	inactive: 0.988

SMILES	relative growth
CCOC(=O)N1CCN(C(=O)C2CCN(S(=O)(=O)N(CC)CC)CC2)CC1	inactive: 1.01
COCCN1C[C@]23CN(C(=O)COC)C[C@@H](C[C@H]2S1(=O)=O)O3	inactive: 1.02
NCC[C@@H]1CC[C@@H](NC(=O)C2CCCCC2)[C@H](CO)O1	inactive: 0.98
CCC(C)C1NC(=O)C(CCNCS(=O)(=O)[O-])NC(=O)C(NC(=O)C(CCNCS(=O)(=O)[O-])NC(=O)C(NC(=O)C(CCNCS(=O)(=O)[O-])NC(=O)CCCCC(C)C)C(C)O)CCNC(=O)C(C(C)O)NC(=O)C(CCNCS(=O)(=O)[O-])NC(=O)C(CCNCS(=O)(=O)[O-])NC(=O)C(C(C)CC)NC1=O.[Na+].[Na+].[Na+].[Na+].[Na+] (configuration not stated)	active: 0.0529
C[C@@H]1CN([C@H](C)CO)C(=O)c2cc(-c3cccnc3)cnc2O[C@H]1CN(C)Cc1ccc(Oc2ccccc2)cc1	inactive: 1.04
C[C@@H]1CN([C@@H](C)CO)C(=O)Cc2cc(NC(=O)Nc3ccc(F)cc3)ccc2O[C@@H]1CN(C)Cc1ccc(-c2ccccc2)cc1	inactive: 1.02
C[C@H]1CN([C@@H](C)CO)C(=O)c2cccc(NS(=O)(=O)c3ccccc3)c2O[C@H]1CN(C)S(=O)(=O)c1cn(C)cn1	inactive: 0.99
Cc1noc(C)c1NC(=O)N(C)C[C@H]1Oc2ccc(NC(=O)CCCN(C)C)cc2C(=O)N([C@H](C)CO)C[C@H]1C	inactive: 1.06
C[C@H]1CN([C@@H](C)CO)C(=O)c2cccc(NC(=O)c3nc4ccccc4s3)c2O[C@@H]1CN(C)S(=O)(=O)c1cn(C)cn1	inactive: 0.992
COc1ccc(S(=O)(=O)N(C)C[C@@H]2OCCCC[C@@H](C)Oc3ccc(NC(=O)Nc4cccc5ccccc45)cc3C(=O)N([C@H](C)CO)C[C@H]2C)cc1	inactive: 1.05
C[C@H](CO)N1C[C@H](C)[C@H](CN(C)S(=O)(=O)c2ccc(C#N)cc2)Oc2ncc(C#CCN(C)C)cc2C1=O	inactive: 1.01
C[C@@H]1CCCCO[C@@H](CN(C)Cc2ccc3c(c2)OCO3)[C@@H](C)CN([C@H](C)CO)C(=O)c2cc(NC(=O)Nc3ccc(F)cc3)ccc2O1	inactive: 1
COc1ccc(S(=O)(=O)N(C)C[C@@H]2Oc3c(NS(=O)(=O)c4c(C)noc4C)cccc3C(=O)N([C@@H](C)CO)C[C@@H]2C)cc1	inactive: 1.01
Cc1noc(C)c1NC(=O)Nc1ccc2c(c1)CC(=O)N([C@@H](C)CO)C[C@@H](C)[C@@H](CN(C)C(=O)Nc1ccc(C(F)(F)F)cc1)O2	inactive: 0.982
O=C(C[C@@H]1CC[C@@H]2[C@H](COC[C@@H](O)CN2C(=O)c2ccc3c(c2)OCO3)O1)NCCN1CCCC1	inactive: 1.01
C[C@H]1CCCCO[C@H](CN(C)C(=O)Nc2ccc(F)cc2)[C@@H](C)CN([C@@H](C)CO)C(=O)c2cc(NC(=O)Nc3ccc(C(F)(F)F)cc3)ccc2O1	inactive: 0.97
COc1cc(N2CCC3(CC2)CNC(=O)CO3)ncn1	inactive: 0.968
C[C@@H]1CN([C@H](C)CO)C(=O)Cc2cc(NC(=O)CCN3CCOCC3)ccc2O[C@@H]1CN(C)Cc1ccccc1	inactive: 0.982
CC(C)CC#Cc1ccc2c(c1)O[C@H](CN(C)C(=O)C1CCOCC1)[C@@H](C)CN([C@@H](C)CO)S2(=O)=O	inactive: 1
